Assay results taken from article PMC4336329 (PLoS ONE, 2015).
Among all 310,000 compounds or so, about 14,000 (4.5%) showed an effect of 50% or more. Effects have a minus sign here. This is one part of the list.

Biological target: human ether-à-go-go-related gene (hERG) potassium channel (human, UniProt Q12809)
Assay: primary screen, population patch clamp on CHO cells stably expressing hERG
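Note: peak tail current of the secondary pulse compared with the same well before compound.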

human ether-à-go-go-related gene (hERG) potassium channel, sequence (Q12809 whole entry, looked up): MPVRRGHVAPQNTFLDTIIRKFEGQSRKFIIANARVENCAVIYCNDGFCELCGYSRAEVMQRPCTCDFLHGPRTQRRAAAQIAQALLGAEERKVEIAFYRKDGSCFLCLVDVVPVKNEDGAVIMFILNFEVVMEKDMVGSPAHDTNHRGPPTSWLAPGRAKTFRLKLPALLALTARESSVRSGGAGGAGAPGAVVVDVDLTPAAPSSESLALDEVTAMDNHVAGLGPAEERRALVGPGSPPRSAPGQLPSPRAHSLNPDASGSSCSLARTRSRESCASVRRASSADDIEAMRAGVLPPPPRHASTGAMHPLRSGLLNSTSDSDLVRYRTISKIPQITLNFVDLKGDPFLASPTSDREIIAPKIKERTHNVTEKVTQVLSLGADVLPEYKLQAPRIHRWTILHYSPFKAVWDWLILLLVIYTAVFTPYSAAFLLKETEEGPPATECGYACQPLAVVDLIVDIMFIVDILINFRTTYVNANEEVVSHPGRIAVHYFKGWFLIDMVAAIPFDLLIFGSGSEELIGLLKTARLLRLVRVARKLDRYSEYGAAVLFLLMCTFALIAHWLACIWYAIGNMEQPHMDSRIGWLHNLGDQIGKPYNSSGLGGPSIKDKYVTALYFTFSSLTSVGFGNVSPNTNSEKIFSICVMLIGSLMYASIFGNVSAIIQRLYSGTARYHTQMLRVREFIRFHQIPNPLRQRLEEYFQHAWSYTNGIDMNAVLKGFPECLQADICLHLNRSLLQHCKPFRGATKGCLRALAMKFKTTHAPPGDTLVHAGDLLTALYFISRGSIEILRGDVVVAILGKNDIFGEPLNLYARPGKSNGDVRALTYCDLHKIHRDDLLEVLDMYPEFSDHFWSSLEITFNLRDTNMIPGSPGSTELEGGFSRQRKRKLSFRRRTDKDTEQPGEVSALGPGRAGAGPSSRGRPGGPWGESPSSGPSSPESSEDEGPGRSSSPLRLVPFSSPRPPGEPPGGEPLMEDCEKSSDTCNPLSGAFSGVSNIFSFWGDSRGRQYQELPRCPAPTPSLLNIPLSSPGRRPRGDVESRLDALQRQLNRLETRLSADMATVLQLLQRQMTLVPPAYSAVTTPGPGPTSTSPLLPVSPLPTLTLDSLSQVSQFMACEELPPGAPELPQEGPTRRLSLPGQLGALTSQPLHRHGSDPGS

Row | Structure (SMILES) | hERG current change (%, negative = inhibition) at 10uM
1 | COc1ccc(C)cc1NS(=O)(=O)c1ccc(Br)s1 | -5.73%
2 | CCN1CCN(C(=O)/C=C/c2ccc(C)o2)CC1 | -8.76%
3 | Cc1ccc(NC(=O)CSC(N)=O)cc1Cl | 7.5%
4 | Cc1c(C(=O)N2CCOCC2)sc(NC(=O)c2ccc([N+](=O)[O-])cc2)c1C#N | 11.4%
5 | Cc1ccc2oc(-c3ccccc3)c(C(=O)O)c(=O)c2c1 | -2.67%
6 | CC1CC2(CCCCC2)N2C(=O)C(=O)c3cccc1c32 (stereo not drawn) | -2.7%
7 | COc1ccc(CNC(=O)CCCOc2cc(=O)n(C)c3ccccc23)cc1 | -19.2%
8 | Cc1ccc(N2C(=O)C(CC(=O)Nc3cccc(F)c3)N(CCc3ccncc3)C2=O)cc1 (stereo not drawn) | -52.3%
9 | O=S(=O)(NC(=NC1CCCCC1)c1ccccc1F)c1ccccc1 | 10.4%
10 | C[C@@H]1CC[C@H](O)/C=C/C(=O)O[C@H](C)CC[C@H](O)/C=C/C(=O)O1 | 6.34%
11 | Cc1ccc2cccc(NC3OC(=O)c4ccccc43)c2n1 (stereo not drawn) | 12%
12 | CC(=O)c1ccc(NC(=S)N2CCC(O)CC2)cc1 | 25.5%
13 | Cc1cc(Cn2nc(C(=O)NCc3cccc(C(F)(F)F)c3)cc2-c2ccccc2)on1 | -57%
14 | Fc1ccc(N2N=C(c3cccs3)CC2c2ccccc2)cc1 (stereo not drawn) | 8.89%
15 | CC(C)COc1cccc(C(=O)NC(=S)NCc2cccnc2)c1 | -13.1%
16 | COc1ccc(NC2CCCN(C(=O)c3cc(C)nc4cc(F)ccc34)C2)cc1 (stereo not drawn) | 13.4%
17 | CCCCCCC(=O)N/N=C1\CCCc2ccccc21 | -6.63%
18 | Cc1cc(C)n2nc(C(=O)OCC(=O)c3ccccc3Cl)nc2n1 | -0.0673%
19 | O=C(CCn1c(=O)oc2ccccc21)NCCN1CCOCC1 | -2.83%
20 | O=S(=O)(NC1c2cccc3cccc(c23)C1Sc1ncccn1)c1ccc(Cl)cc1 (stereo not drawn) | -1.02%
21 | Cc1ccc(-c2c(C#N)c(N)n3c(nc4ccccc43)c2C#N)cc1 | 4.85%
22 | Cc1cc2cc(C=O)c(Cl)nc2cc1C | 16%
23 | CCOc1ccc(Cc2c(Cl)nc(SC)nc2N(C)C)cc1 | -6.22%

Row | Structure (SMILES) | hERG current change (%, negative = inhibition) at 10uM
24 | CCOC(=O)c1sc(/S(C)=N\S(=O)(=O)c2cccc(Cl)c2)c2c1CCC=C2 (stereo not drawn) | -51.9%
25 | CN(C)C(=S)NC(=O)C(c1ccccc1)c1ccccc1 | 13.5%
26 | CCCCOc1ccccc1NC(=O)Cn1c(-c2nonc2N)nc2ccccc21 | 2.58%
27 | Cc1ccc2c(c1)cc(CN(Cc1cccnc1)C(=O)c1ccccc1)c1nnnn12 | -78%
28 | CC(C)N(C(=O)CS(=O)(=O)c1ccc(Cl)c(Cl)c1)C(C)C | 0.756%
29 | COc1ccc(C(=O)Nc2ccc(Cn3ccnc3)cc2)cc1OC | 7.54%
30 | COC(=O)c1ccc(C)c(NC(=O)COC(=O)C2CC3CCCC(C2)C3=O)c1 (stereo not drawn) | -12.9%
31 | CC(=O)N(C(C)=O)n1c(/C=C/c2cccc([N+](=O)[O-])c2)nc2ccccc2c1=O | 15.1%
32 | CCN(CC)S(=O)(=O)c1ccc(OC)c(NC(=O)c2cccc([N+](=O)[O-])c2C)c1 | -63.8%
33 | CCNc1nc(OC)nc(Oc2ccc(C(=O)OC)cc2)n1 | 2.62%
34 | CC(=O)N1CCC(N(C(=O)Nc2ccc(F)cc2)C2CCCC2)CC1 | 9.6%
35 | O=S(=O)(c1ccc2ccccc2c1)N(CC1CO1)c1ccccc1 (stereo not drawn) | 0.482%
36 | COc1ccc(NC(=O)c2cc(S(=O)(=O)N3CCOCC3)cn2C)c(OC)c1 | 0.246%
37 | N#Cc1c(Cl)nc(Cl)c2c1CCN(Cc1ccccc1)C2 | -4.13%
38 | COc1ccccc1OCC(=O)N1CCCC(N2CCN(c3ccc(F)cc3)CC2)C1 (stereo not drawn) | -52.9%
39 | Cl.O=C(c1ccco1)N1CCN(CCCCOc2cccc3ccccc23)CC1 | -62.4%
40 | COc1ccc(Br)cc1/C=N/NC(=O)C(c1ccncc1)N1CCOCC1 (stereo not drawn) | 7.87%
41 | CC(C)Nc1ccc(Nc2ccnc3cc4ccccc4cc23)cc1 | -72.7%
42 | COC(=O)Cn1c(N2CCCC2)nc2c1c(=O)n(C)c(=O)n2C | 17.8%
43 | O=C1CCN(S(=O)(=O)c2ccc(Br)cc2)CCN1 | 6.3%
44 | Cc1ccc(NC(=O)O/N=C/c2ccc(F)cc2)cc1 | 2.68%
45 | CN(C)CCNC(=S)Nc1cccc(Cl)c1 | -27%
46 | CSc1ccccc1C(=O)OCC(=O)N1CCCC1=O | -13.4%

Row | Structure (SMILES) | hERG current change (%, negative = inhibition) at 10uM
47 | Cc1cc(NCCCOC(C)C)n2c(nc3ccccc32)c1C#N | -0.271%
48 | Cc1ccc(S(=O)(=O)N(C)C)cc1NC(=S)N1CCc2ccccc21 | 11.5%
49 | CCCOc1ccc(S(=O)(=O)Nc2ccccn2)c2ccccc12 | 13.8%
50 | COC(=O)/C(=C/c1ccco1)NC(=O)c1ccco1 | 5.61%
51 | CNC(=S)N/N=C/c1ccccc1OCC(=O)O | 18.4%
52 | O=c1[nH]cnc2scc(-c3ccc(-c4ccccc4)cc3)c12 | 14.1%
53 | O=C(CSc1nnc2ccccn12)Nc1cccc(S(=O)(=O)N2CCOCC2)c1 | 4.8%
54 | Cc1ccc(NC(=S)N(CCN2CCCCC2)Cc2ccco2)cc1C | -80.3%
55 | CC1CN(c2ccc([N+](=O)[O-])c(N3CCCCC3)c2)CCN1 (stereo not drawn) | -28.3%
56 | COc1ccc(OC)c2nc3c(cc12)CCC3 | 20.8%
57 | CCc1ccc(N(CC(=O)NC2CCCCC2)S(=O)(=O)c2c(C)noc2C)cc1 | 10.1%
58 | O=C(Nc1ncc(Br)s1)C1CCCN1S(=O)(=O)c1cccc2cccnc12 (stereo not drawn) | -3.36%
59 | CC1(C)CC(=O)C2=C(C1)NC(SCC(=O)Nc1ccccc1)=C(C#N)C21CCCCC1 | -3.83%
60 | CCN(CC(=O)Nc1c(F)cccc1F)C(=O)c1ccc(C2SCCS2)cc1 | 0.0972%
61 | Cc1ccc(OCC(=O)n2cnnc2N)c(C)c1 | 17.3%
62 | Cc1ccc(C(=O)NC(=S)NCCN2CCOCC2)cc1 | 23.3%
63 | Cc1ccc(N(C(C)C(=O)Nc2cc(Cl)ccc2Oc2ccccc2)S(C)(=O)=O)cc1 (stereo not drawn) | 12.9%
64 | Cn1c(=O)c2c(nc(CN3CCCCC3)n2Cc2c(F)cccc2Cl)n(C)c1=O | 3.06%
65 | COc1ccc(-c2cc(C(F)(F)F)c3c(N)c(C(=O)NCCSC)sc3n2)cc1 | -10.7%
66 | CCOc1ccccc1NC(=O)C(=O)CC(=O)c1ccc(OC)cc1 | 6.53%
67 | O=C(Nc1ccc2c(c1)OCCO2)C1CC(O)CN1C(=O)Nc1ccccc1 (stereo not drawn) | 9.37%
68 | CC(C)CCN(C)c1ccc(/C=N/n2cnnc2)cc1 | -10.4%
69 | CC1CCN(c2nc3ccccc3nc2N2CCC(C)CC2)CC1 | 2.06%

Row | Structure (SMILES) | hERG current change (%, negative = inhibition) at 10uM
70 | CCCCNC(=O)C1CCN(S(=O)(=O)c2c(C)noc2/C=C\c2ccc(OC)cc2)CC1 | 8.64%
71 | CCOC(=O)c1c(NC(=O)c2c(C(=O)O)cccc2[N+](=O)[O-])sc(C)c1C | 25.9%
72 | Cc1cccc[n+]1CC(=O)Nc1ccccc1.[Cl-] | 6.56%
73 | COC(=O)c1c(NC(=O)/C=C/C(=O)O)sc(Cc2ccccc2)c1C | -12.8%
74 | N#CCSc1nnc(-c2ccc(F)cc2)n1N | 13.2%
75 | COc1cc(NS(=O)(=O)c2c(C)[nH]c(C)c2C(=O)N2CCCC2)cc(OC)c1OC | 2.89%
76 | COc1cc(-c2n[nH]c(=O)o2)cc(OC)c1OC | -20.7%
77 | O=C(Nc1ccccc1F)c1ccc(COc2ccc(Cl)cc2Cl)o1 | 3.67%
78 | CN(C)/C=N/c1cc(=O)[nH]c(=O)n1CC1CC1 | 23.5%
79 | COC(=O)c1ccc(CNC(=O)CNC(=O)c2sc3ccccc3c2Cl)cc1 | 10.2%
80 | CC(=O)Nc1nc2cc([N+](=O)[O-])ccc2s1 | 1.8%
81 | Cc1cc2c(cc1S(=O)(=O)NCCc1ccccc1)NC(=O)CO2 | 1.2%
82 | COC(=O)c1c(NC(=O)CSc2nc3ccccc3c(=O)n2-c2ccccc2)sc(C)c1C | 5.82%
83 | COc1ccc(N2C(=O)C3CCCN3C2c2ccccc2OC)cc1 (stereo not drawn) | 24.5%
84 | COCCN1Cc2cccc(C(=O)NCCc3ccccc3)c2C1=O | -6.1%
85 | CCCC1=NN(C(=O)Cc2ccc(OC)cc2)C(O)(C(F)(F)F)C1 (stereo not drawn) | -3.94%
86 | Cc1cc(Oc2nc3c(C)cccn3c(=O)c2/C=C(\C#N)S(=O)(=O)c2ccccc2)ccc1Cl | 3.51%
87 | CC(C)CCN1CCN(C2CCN(c3ccccc3)CC2)CC1CCO (stereo not drawn) | -60.9%
88 | CCCCCN(C(=O)CCC(=O)OCCOc1cccc(C)c1)c1c(N)n(CCCC)c(=O)[nH]c1=O | -27.7%
89 | COc1cccc(CN2CCNC(=O)C2CC(=O)NC2CCCCC2)c1OC (stereo not drawn) | 8.01%
90 | CN(C)CCN(Cc1ccccc1)c1nccc(N(C)C)c1C#N.O.O=C(O)C(=O)O | -11.8%
